Whole data set: some 110,000 compounds, median “z-score” near -0.1, cut for the highest 2% near 2. The list shows a part of the results.

For this assay, the target named is Metabotropic glutamate receptor 8 (Rattus norvegicus) (UniProt P70579). The assay can be described thus: mGluR8 Gi/Go-coupled signaling modulation – cell-based, rat, thallium flux, HTS, primary screen (AID 488969). Particulars: HEK293 rat mGluR8, GIRK (G protein-gated inwardly rectifying potassium channel) thallium flux, FluoZin2; at 10 µM; stronger effect = higher value; submaximal glutamate (EC20) added with thallium.
Chain of UniProt P70579 (P70579 whole entry, looked up): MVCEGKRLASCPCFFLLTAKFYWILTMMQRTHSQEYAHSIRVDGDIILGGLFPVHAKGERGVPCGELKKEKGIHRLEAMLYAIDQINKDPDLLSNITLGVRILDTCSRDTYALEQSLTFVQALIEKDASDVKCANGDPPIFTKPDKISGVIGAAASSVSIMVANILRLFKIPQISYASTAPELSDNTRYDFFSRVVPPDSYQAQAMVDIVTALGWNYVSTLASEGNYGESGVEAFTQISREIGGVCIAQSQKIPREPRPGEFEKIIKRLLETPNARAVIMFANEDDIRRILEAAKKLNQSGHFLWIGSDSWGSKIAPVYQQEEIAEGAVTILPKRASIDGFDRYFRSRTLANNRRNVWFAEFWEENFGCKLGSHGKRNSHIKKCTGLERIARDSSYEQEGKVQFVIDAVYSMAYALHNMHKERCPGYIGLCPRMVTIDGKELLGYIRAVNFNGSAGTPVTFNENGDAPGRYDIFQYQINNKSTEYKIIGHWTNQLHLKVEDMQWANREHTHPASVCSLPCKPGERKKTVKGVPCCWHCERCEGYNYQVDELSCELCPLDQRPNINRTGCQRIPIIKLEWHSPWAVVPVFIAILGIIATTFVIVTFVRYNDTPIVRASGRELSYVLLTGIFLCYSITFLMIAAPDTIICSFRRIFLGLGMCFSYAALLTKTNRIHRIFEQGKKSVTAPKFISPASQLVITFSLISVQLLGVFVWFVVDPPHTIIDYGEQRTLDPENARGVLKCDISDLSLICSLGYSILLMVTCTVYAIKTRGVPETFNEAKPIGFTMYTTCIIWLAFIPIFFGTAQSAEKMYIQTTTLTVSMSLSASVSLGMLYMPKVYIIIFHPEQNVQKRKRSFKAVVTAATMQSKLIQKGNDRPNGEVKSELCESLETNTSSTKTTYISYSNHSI
As to `C=CCSc1nc2sc3c(c2c(=O)n1CC=C)CCc1ccccc1-3`, the z-score is -0.139. As to `COc1ccc(COCC(O)CN2CC(C)OC(C)C2)cc1OC` (stereo not drawn), the z-score was found to be 0.0549. Next, `COc1cccc(N2CCN(c3ccc(S(=O)(=O)N4CCCC4)cc3)CC2)c1`: 0.351; `C#CCn1c(=NC(=O)c2ccc(S(=O)(=O)N3CCc4ccccc4C3)cc2)sc2cc(S(N)(=O)=O)ccc21`: -0.472. As for `COc1cc(/C=N/N=C2/NC(=O)C(c3ccccc3)S2)ccc1O` (stereo not drawn), the figure is 0.0338.

Regarding `O=C(/C=C/Nc1ccc(Cc2ccc(N/C=C/C(=O)C(F)(F)F)cc2)cc1)C(F)(F)F`, the z-score was -0.153. As for `C=CCOC(=O)C1C(=O)CC(C)(O)C(C(=O)OCC=C)C1c1ccc(OC)cc1` (stereo not drawn), the figure is 1.26. As for `Cc1ccc(C(=O)NCCN(C)C)cc1C`, the figure is -0.262. Next, `Cc1cc(=O)n2c3c(cccc13)CCC2`: -0.988. Take `COc1ccc(NC(=O)CSc2[nH]c(=O)cc(C)c2C#N)cc1OC`: the z-score was -1.12. As for `O=C(N/N=C/c1c(O)n(-c2ccc(Cl)cn2)c(=O)c2ccccc12)c1ccncc1`, the figure is -0.217; as for `CCC(=O)Oc1ccc2c(=O)c(-c3ccc4ccccc4n3)c(CC)oc2c1C`, -0.165. Take `Cc1ccc(OC(=O)c2cc(=O)c3ccccc3o2)cc1`: the z-score is -0.622. As for `O=C(Nc1cccnc1)c1cc(-c2cccnc2)nc2ccc(Br)cc12`, the z-score was determined as 0.00258.

For `Cc1cc(C)c(NC(=O)C2CCCN2CCC(C)C)c(C)c1` (stereo not drawn), the z-score was -0.354.

In turn, `CC(C)(C)OC(=O)N1CC(O)CC1C(=O)OCC(=O)c1ccccc1` (stereo not drawn) yielded a z-score of 0.509. `Cc1ccc(C2=N/C(=C\N3CCCCC3)C(=O)O2)cc1` yielded a z-score of -0.0482.

Molecule `CCC(c1nnnn1C(C)(C)C)N(Cc1ccco1)Cc1cc2cccc(C)c2[nH]c1=O` (stereo not drawn) returned a z-score of 0.737. Next, `Cc1ccc(S(=O)(=O)N2CCN(C(=O)CSc3ncc(C(F)(F)F)cc3Cl)CC2)cc1`: -0.176; `CCOC(=O)c1c(C)oc2ccc(NS(=O)(=O)c3ccc4c5c(cccc35)C(=O)N4)cc12`: 0.244. As for `CCc1cc2c(=O)n(Cc3ccco3)c(SCc3c(C)noc3C)nc2s1`, the figure is -0.0054; as for `CCCS(=O)(=O)N1CCCC(C(=O)NCCN(C)Cc2ccccc2)C1` (stereo not drawn), 0.157; as for `O=C(CSCc1ccccc1Cl)NN=C1CCCCCC1`, -0.419. The molecule `COc1ccc2c(c1)-c1nc(/N=C/c3c(O)ccc4ccccc34)sc1CC2` had a z-score of -0.109. Next, `COc1cccc(-c2nc(Oc3cc(C)cc(C)c3)c3ccccc3n2)c1O`: 0.123.

For `COc1cc2c(cc1NC(=O)CSc1nnc(Cc3cccs3)n1Cc1ccco1)oc1ccccc12`, the z-score stood at 0.111. As for `O=C(Cc1csc(-c2ccccc2)n1)Nc1ccc(C(F)(F)F)cc1`, the figure is -0.124; as for `O=C(CSc1nc(-c2ccco2)cc(C(F)(F)F)n1)N1CCN(c2cccc(Cl)c2)CC1`, -0.266.

(Values after PubChem BioAssay AID488969 (Vanderbilt High Throughput Screening Facility, 2010).)
